Experimental data as given in article PMC6919601, “Identification of Plasmodium dipeptidyl aminopeptidase allosteric inhibitors by high throughput screening” (PLoS ONE, 2019).
Among all 110,000 compounds or so, about 230 (0.21%) showed an effect of 50% or more. The list shows a part of the results.

Target: DPAP1 (Plasmodium falciparum, UniProt Q8IIJ9)
Test: primary screen, percent inhibition; read by cleavage of a fluorogenic dipeptide substrate; higher = more effect of the substance
Set-up: species or system P. falciparum D10 trophozoite lysates; single well
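Note: 30 min substrate incubation versus DMSO and 10 µM JCP410 controls.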

DPAP1, sequence (Q8IIJ9 whole entry, looked up): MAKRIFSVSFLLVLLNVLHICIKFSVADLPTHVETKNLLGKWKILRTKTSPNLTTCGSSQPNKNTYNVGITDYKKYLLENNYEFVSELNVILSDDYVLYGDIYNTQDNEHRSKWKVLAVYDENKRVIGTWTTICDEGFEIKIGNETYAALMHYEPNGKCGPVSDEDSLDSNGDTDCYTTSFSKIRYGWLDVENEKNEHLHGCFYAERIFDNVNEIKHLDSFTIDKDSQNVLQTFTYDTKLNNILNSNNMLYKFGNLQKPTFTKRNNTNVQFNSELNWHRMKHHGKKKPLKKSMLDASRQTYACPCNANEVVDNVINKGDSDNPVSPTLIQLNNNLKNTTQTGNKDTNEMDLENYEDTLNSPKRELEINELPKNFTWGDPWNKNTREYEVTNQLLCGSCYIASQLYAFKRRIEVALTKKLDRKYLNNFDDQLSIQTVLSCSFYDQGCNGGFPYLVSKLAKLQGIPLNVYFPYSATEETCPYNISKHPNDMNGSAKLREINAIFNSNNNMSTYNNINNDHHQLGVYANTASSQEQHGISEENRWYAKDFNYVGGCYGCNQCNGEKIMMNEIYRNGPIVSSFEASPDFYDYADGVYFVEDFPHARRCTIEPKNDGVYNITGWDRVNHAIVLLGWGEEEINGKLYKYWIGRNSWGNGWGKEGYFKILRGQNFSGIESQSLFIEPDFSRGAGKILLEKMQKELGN

Row | SMILES | % Inhibition @ 10 uM
1 | N#Cc1sc2nc(-c3ccccc3)ccc2c1N | 4.66%
2 | O=C(O)c1cccc(-c2ccc(/C=C3\NC(=O)N(Cc4ccccc4F)C3=O)o2)c1 | 6.57%
3 | CCOC(=O)/C(=C\N1CCc2ccccc2C1)C(C)=O | 1.18%
4 | COc1cc(/C=C2/C(=N)N3C(SCC(C)C)=NSC3=NC2=O)cc(OC)c1OC | 5.5%
5 | Cc1ccc(C)c(CSc2cn(CC(=O)N3CCOCC3)c3ccccc23)c1 | -3.13%
6 | O=C(CNS(=O)(=O)c1ccc(Br)s1)N1CCC2(CC1)OCCO2 | -2.65%
7 | OCC1CCCN(Cc2cc(F)ccc2F)C1 (stereo not drawn) | -2.02%
8 | COc1cc(CN2CCSCC2)cc(OC)c1 | -0.833%
9 | CSc1ccc(/C=C(\C#N)c2nc3cc(C)ccc3[nH]2)cc1 | 20.5%
10 | Cc1ccc(O)c(C2=NN3C(C2)c2ccccc2OC3c2ccncc2)c1 (stereo not drawn) | -3.48%
11 | CCC(C)NC(=O)CN(c1ccccc1OC)S(=O)(=O)c1ccccc1 (stereo not drawn) | -3.75%
12 | CCN(CC)C(=O)C1CCCN(Cc2ccc(Cl)c([N+](=O)[O-])c2)C1 (stereo not drawn) | 0.847%
13 | CCOc1ccccc1CNC(=O)CCCn1ncn2c(cc3sc(CC)cc32)c1=O | 3.29%
14 | COCCN1C(=O)/C(=C/c2ccc(N3CCCC3)cc2)S/C1=N\c1ccccc1 | -3.25%
15 | CC1(C)CC(=O)C(/C=N/CCCN2CCOCC2)=C(O)C1 | -6.51%
16 | C=CCOc1ccc(C(=O)C2=C(O)C(=O)N(CCCN(C)C)C2c2ccc(Cl)cc2)cc1C (stereo not drawn) | -1.93%
17 | Cc1ccc(C(=O)N(Cc2cccc(F)c2)C2CCS(=O)(=O)C2)cc1 (stereo not drawn) | -1.35%
18 | O=C(O)CCC(=O)Nc1ccccc1C(=O)NC1CCCCC1 | 6.61%
19 | Cc1oc2ncn(C)c(=O)c2c1C(=O)NCc1ccc(F)cc1 | -2.19%
20 | Clc1cccc(OCCCCCn2ccnc2)c1 | -7.06%
21 | Cc1nc2scc(C)n2c(=O)c1S(=O)(=O)NCc1ccco1 | -1.55%
22 | CCC[C@H](NC(=O)C1(NC(=O)c2cccnc2)CCCCC1)C(=O)c1nc2ccccc2o1 | 0.173%
23 | COc1ccc2cc(C(C)c3nc4ccccc4n3C)ccc2c1 (stereo not drawn) | 1.12%
24 | CCc1nn(CCCC(=O)NCCc2ccc(S(N)(=O)=O)cc2)c(=O)c2cc3occc3n12 | -0.281%
25 | CC[C@H](NC(=O)C(CC(=O)OC1CCCCC1)NC(=O)c1ccc(-c2ccccc2Cl)cc1)C(=O)c1nc2ccccc2o1 (stereo partly drawn) | -8.81%

Row | SMILES | % Inhibition @ 10 uM
26 | Cc1ccc2cc(CNCC(C)O)c(O)nc2c1C (stereo not drawn) | -4.54%
27 | Cc1cccc(NC(=O)/C=C\C(=O)O)c1 | 3.25%
28 | Cc1nc2nc(CNC(=O)c3ccccc3)nn2c(C)c1CCC(=O)NC(C)C | -0.447%
29 | O=C(NCCc1c[nH]cn1)c1ccc(Cn2c(SCc3ccc(F)cc3)nc3cccnc32)cc1 | 6.3%
30 | COC(=O)c1cnn2c(C(F)(F)F)cc(-c3ccccc3)nc12 | -3.44%
31 | COc1cccc(-c2noc(-c3cc(Cl)ccc3OC)n2)c1 | -2.4%
32 | CCOc1nc(SCCOc2ccccc2)nc(N(C)C)n1 | -2.03%
33 | Cc1cc(N2CCN(c3ccccc3)CC2)nc(-c2ccc(Br)cc2)n1 | 5.03%
34 | CCN(CC)S(=O)(=O)c1ccc(N/C=C2\C(=O)N(C)C(=O)C(C#N)=C2C)cc1 | 2.36%
35 | C=CCOc1c(Cl)cc(CNc2nc[nH]n2)cc1OC | 3.8%
36 | CCCc1[nH]nc2c1/C(=N\O)CC(C)(C)C2 | -8.21%
37 | CCOc1ccccc1/C=C1\N=C(C2CCCCC2)OC1=O | 2.28%
38 | COc1cc(/C=C/C(=O)C(C)(C)O)cc(OC)c1OC | -4.21%
39 | Cc1oc2ncn(C)c(=O)c2c1C(=O)NCc1ccco1 | -2.19%
40 | CCOc1ccccc1-n1cc2c(c1-c1cccc(C)c1)c(=O)n(C)c(=O)n2C | 5.17%
41 | COc1ccc(C2C(C#N)=C(N)Oc3[nH]nc(C)c32)cc1COc1ccccc1Cl (stereo not drawn) | -3.46%
42 | COc1cc(/C=C2/C(=N)N3N=C(c4ccccc4Cl)SC3=NC2=O)cc(OC)c1OC | -1.6%
43 | CCN1C(=O)NC(=O)/C(=C\c2cn(CC(=O)N3CCCCC3)c3ccccc23)C1=O | -3.06%
44 | CC1(C)CC(=O)C2=C(C1)OC(N)=C(C#N)C2c1ccccc1OCc1ccc(Br)cc1 (stereo not drawn) | -2.88%
45 | Cc1ccc(S(=O)(=O)N2CCN(C)CC2)cc1 | -3.13%
46 | Cc1ccc(CS(=O)(=O)Cc2ccc(C(=O)NCc3ccco3)o2)cc1 | 5.35%
47 | Cc1cccc(NC(=O)c2sc3nc4c(cc3c2N)CCC4)c1 | 15.6%
48 | COC(=O)c1c(-n2cccc2)sc(C)c1C | 3.29%
49 | CNC(=O)c1cc(-c2ccccc2)c(N2CCCCC2)s1 | -2.83%
50 | COc1cccc(C2Nc3ccccc3C(=O)N2Cc2ccccc2)c1 (stereo not drawn) | -7%

Row | SMILES | % Inhibition @ 10 uM
51 | Cn1c(=O)c2sccc2n2c(CCCC(=O)N3CCC(N4CCCCC4)CC3)nnc12 | -4.76%
52 | CCCCn1cnc2scc(-c3ccccc3)c2c1=O | -5.35%
53 | COc1ccc(C2CC(=O)NC3=C2C(=O)CC(C)(C)C3)c(OC)c1OC (stereo not drawn) | -8.69%
54 | O=C(O)C1C2C=CC(C2)C1C(=O)NCc1ccncc1 (stereo not drawn) | -2.83%
55 | O=S(=O)(NC(c1ccccc1)c1ccccc1)c1ccc(F)cc1 | 0.827%
56 | CC(C)=C1SC(N2CCN(CCC#N)CC2)=NC1=O | 2.36%
57 | C/C(=N\Cc1ccc2c(c1)OCO2)C1=C(O)c2ccccc2C1=O | -1.92%
58 | CCOc1ccc(OCC)c(S(=O)(=O)n2cnc(C)c2)c1 | -2.94%
59 | CCOC(=O)c1c(C)c(-c2ccccc2)n(CC(=O)N2CCCC(C)C2)c1C (stereo not drawn) | 0.0579%
60 | Cc1ccc(C)c(NS(=O)(=O)c2ccc(Cl)cc2)c1 | 0.135%
61 | CCOc1ccc(/C=C/c2nc(C#N)c(N3CCCC3)o2)cc1 | -2.57%
62 | CCN(CC)C(=O)c1c(C)oc2cc3c(N(CC)CC)c(C)oc3cc12 | -10.8%
63 | Cc1cc(-n2c(SCC(=O)NCc3cccc(Cl)c3)nc3nnc(C)c-3c2N)ccc1Cl | 1.42%
64 | Clc1ccc(Cl)c(-n2ncc3c2ncn2nc(Cc4ccccc4)nc32)c1 | -1.11%
65 | Cc1ccc(S(=O)(=O)Oc2cccc3cccnc23)cc1 | -4.27%
66 | Cc1ccc(OCC(=O)O)c(-n2nc3ccccc3n2)c1 | 1.92%
67 | COc1cccc(C2C3=C(O)CCCC3=NC(C)=C2C(=O)Nc2ccc(F)cc2F)c1 (stereo not drawn) | -5.34%
68 | Cc1nn(CC(=O)N2CCC(C)CC2)c2ccccc12 | -4.71%
69 | O=C(O)CSc1c2c(nc3cc(C(=O)NCC4COc5ccccc5O4)ccc13)CCCC2 (stereo not drawn) | 9.02%
70 | COCCN1C(=O)/C(=C/c2ccc(Cl)s2)S/C1=N\c1ccccc1 | -7.3%
71 | O=C(CCCCn1c(=O)[nH]c2ccsc2c1=O)NC1CCN(Cc2ccccc2)CC1 | -0.228%
72 | COc1ccc(C(=O)Nc2nc3ccccc3s2)cc1OC | 4.76%
73 | Cc1cc2c(o1)-c1c(oc3ccc(Cl)cc13)CCC2(C)c1ccccc1 (stereo not drawn) | -0.0494%
74 | COc1ccc(C(=O)N2CCN(c3ccc(F)cc3)CC2)cc1 | 1.62%
75 | CCOCCCNC(=O)C(NC(=O)c1ccccc1O)c1ccc(Cl)cc1 (stereo not drawn) | -3.78%

Row | SMILES | % Inhibition @ 10 uM
76 | CC(C(=O)N1CCN(Cc2ccc3c(c2)OCO3)CC1)N1C(=O)c2ccccc2C1=O (stereo not drawn) | -2.98%
77 | O=C(O)CCCn1cc(NC(=O)COc2ccc(F)cc2)cn1 | 2.99%
78 | COc1ccc(OC)c(C(c2c(O)nc(S)nc2O)N2CCCCC2)c1 (stereo not drawn) | -2.8%
79 | N#Cc1c(N)n(-c2ccc3ccccc3c2)c2nc3ccccc3nc12 | -0.0372%
80 | O=C(CCCc1nnc2n3nc(-c4ccccc4)nc3c3ccccc3n12)NCc1cccnc1 | 20.1%
81 | CC(C)c1nc2sc3c(N4CCOCC4)ncnc3c2c2c1COC(C)(C)C2 | -3.13%
82 | COc1ccc(C2C(C(C)=O)=C(C)N=c3s/c(=C/c4ccccc4)c(=O)n32)cc1 (stereo not drawn) | 0.35%
83 | Nn1cnn2c(SCC(=O)c3ccccc3)nnc12 | -2.39%
84 | CO/C(O)=C1\C(C)=Nc2nnnn2C1c1cc(Br)ccc1OC (stereo not drawn) | -3.53%
85 | Cc1ccc(C)c(NC(=O)C2CC(=O)N(C3CCCCC3)C2)c1 (stereo not drawn) | -0.0648%
86 | COc1ccc2sc(SC[C@H]3CCCC[C@H]3C(=O)NCC#N)nc2c1 | -3.04%
87 | C=CCn1c(O)c(CN2CCN(Cc3ccccc3)CC2)c(C)c(C#N)c1=O | -4.04%
88 | CSc1ccc(CCNc2ncnc3c2nc2n3CCCCC2)cc1 | -6.62%
89 | OC1CCN(Cc2cccc3ccccc23)CC1 | 4.73%
90 | CCOc1ccc(S(=O)(=O)Nc2ccc(OC)c(Cl)c2)cc1 | 3.35%
91 | CC(C)C[C@H](NC(=O)OCc1ccccc1)C(=O)NCC(=O)CN(Cc1ccccc1)C(=O)OC(C)(C)C | 3.66%
92 | CCOc1ccc(N(CC(=O)N2CCCC2)S(=O)(=O)c2ccc(C)cc2)cc1 | -8.61%
93 | C=CCN1C(=O)N/C(=C/c2cc(Br)ccc2OC)C1=O | -1.02%
94 | COc1ccc(/C=C2/SC(=O)N(C(C)C)C2=O)c(C)c1 | -5.3%
95 | CCCc1nc(C)cc(N2CCOCC2)n1 | 2.25%
96 | COc1ccc(CCNC(=O)c2nonc2NC(C)=O)cc1OC | -10.8%
97 | CC(C)n1c(-c2ccccc2)nc2ccccc21 | -0.769%
98 | O=C(NCc1ccc2c(c1)OCO2)c1cccnc1SCc1ccccc1Cl | 2.8%
99 | CN1C(=O)C(CC(=O)Nc2ccc(F)cc2)S/C1=N/c1ccccc1 (stereo not drawn) | -3.83%
